The text below walks through data of PubChem BioAssay AID1346428 (National Center for Advancing Translational Sciences (NCATS), 2018).

Several values for one entry are separate records, joined by “and”; a condition that tells them apart may be missing. Identical values can stand only once. In all, about 48,000 compounds went through this assay and about 1,200 (2.5%) were called active. Roughly 2% stayed inconclusive and do not appear here.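 Rule for the calls: active = activation of at least 60% and not above a set upper limit (about 1 call in 100 departs from these limits); inconclusive = activation of 40% to 60%, or above that upper limit; inactive = activation under 40%.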 The list shows a part of the results.

The assay addresses Probable G-protein coupled receptor 32 (Homo sapiens) (UniProt O75388). Nature of the assay: qHTS for Agonists of Human Resolvin D1 Receptor DRV1. Note: 0% is about no effect. Conditions: CHO-K1 GPR32 beta-arrestin PathHunter luminescence, 90 min; at 76.9 µM; active compounds read high; zero percent set by DMSO-only wells. In outline: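 PathHunter beta-arrestin recruitment in CHO-K1 cells stably expressing ProLink-tagged GPR32. Cells were exposed to compound for 90 min at 37 C, then chemiluminescence was read after 1 h detection at ambient temperature; DMSO served as basal control.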
Chain of UniProt O75388 (O75388 whole entry, looked up): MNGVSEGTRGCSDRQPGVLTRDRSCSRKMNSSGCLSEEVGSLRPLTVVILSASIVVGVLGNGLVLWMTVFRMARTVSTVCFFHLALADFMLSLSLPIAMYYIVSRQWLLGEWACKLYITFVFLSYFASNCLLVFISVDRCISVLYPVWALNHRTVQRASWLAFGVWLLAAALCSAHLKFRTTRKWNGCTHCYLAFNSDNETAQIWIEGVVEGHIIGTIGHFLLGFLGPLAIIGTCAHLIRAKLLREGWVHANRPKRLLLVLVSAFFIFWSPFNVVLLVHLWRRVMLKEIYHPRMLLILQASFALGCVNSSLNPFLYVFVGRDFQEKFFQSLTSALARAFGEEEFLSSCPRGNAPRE
With `CCc1ccc(S(=O)(=O)c2nnn3c2nc(N2CCN(CC)CC2)c2sccc23)cc1`, the activation is inactive: -4.76%. `CC(=O)N1CCc2cc(CNS(=O)(=O)c3cccs3)ccc21`: the activation is inactive: -5.63%. `COc1ccc(-c2nnc(SCC(=O)Nc3cccc(C)c3)s2)cc1`: the activation is inactive: 4%. `CCOC(=O)c1c(NC(=O)CSc2cn(CCNC(=O)c3ccc(OC)cc3)c3ccccc23)sc2c1CCC2`: the activation was inactive: -0.0515%. With `COc1ccc(NC(=O)CSc2nc(-c3ccccc3)cc(-c3cc(OC)c(OC)c(OC)c3)c2C#N)c(OC)c1` the figure was inactive: -4.55%; with `COc1ccccc1-c1cc(C(=O)Nc2c(C)nn(Cc3ccc(Cl)cc3)c2C)no1`, active: 72.3%; with `CCCCOC(=O)c1ccc(NC(=O)C2(c3cccs3)CCOCC2)cc1`, inactive: 1.21%. With `CCCCN(CCCNC(=O)c1cc(Nc2ccc(OC)cc2OC)nc2ccccc12)Cc1ccccc1` the figure was inactive: -4.69%. With `COc1ccc(NC(=O)CSc2nccn2C2CCCC2)cc1OC` the figure was inactive: 4.72%; with `Cc1nn(CC(=O)Nc2ccc(C(C)C)cc2)c(=O)c2c(C)n(-c3ccc(Cl)cc3)nc12`, inactive: -10.1%. For `COc1ccc(-c2cn3nc(N4CCCC(C(=O)Nc5ccccc5F)C4)sc3n2)cc1` (stereo not drawn), the activation is inactive: -7.84%. With `CCOc1ccccc1N(C)C(=O)c1sc2nc3n(c(=O)c2c1C)CCCC3` the figure was inactive: -8.78%; with `COc1ccc(NC(=O)C(c2ccc(OC)cc2)N(C)C(=O)Cc2cccs2)cc1` (stereo not drawn), inactive: -9.22%; with `Cn1ccc2cc(S(=O)(=O)N3CCN(C(=O)Nc4cccc(F)c4)CC3)ccc21`, inactive: 9.86%. Next, `Cc1ccc(Cn2cc(S(=O)(=O)c3ccccc3)c(=O)c3cc(F)c(N4CCOCC4)cc32)cc1`: inactive: -11.3%; `COc1ccccc1N1CCN(S(=O)(=O)CCNC(=O)c2cc(=O)c3ccccc3o2)CC1`: inactive: -12.3%. Regarding `CC(C)(Oc1ccc(Cl)cc1)C(=O)Nc1ccc(-c2nc3ncccc3o2)cc1`, the activation is inactive: 16.1%. For `CC(C)C(C)(C)C(C)(C)C(C)(C)S`, the activation is inactive: -34.3%.

Take `COc1ccc(C(CNC(=O)COc2cc(C)c(Cl)c(C)c2)N2CCCCC2)cc1` (stereo not drawn): the activation is inactive: -12.1%. With `Cc1ccccc1C(=O)Nc1cccc(-c2nc3cccnc3s2)c1` the figure was inactive: -4.69%. Next, `COc1ccc2c(c1)c1c3n2CCN(C)C3=NCC1`: inactive: 9.39%; `O=C(CSc1nc(=O)n(Cc2ccncc2)c2c1CCC2)Nc1ccccc1`: inactive: -2.96%; `COc1cccc(N2CCN(C(=O)CCn3nc(C)c(S(=O)(=O)N4CCCC4)c3C)CC2)c1`: inactive: 7.98%. Next, `COc1ccc(Cn2ccc3nc(C)c(C(=O)Nc4ccc(OC)c(OC)c4)cc3c2=O)cc1`: inactive: 12.7%; `OCCN1CCN(CCCN2c3ccccc3Sc3ccc(Cl)cc32)CC1`: inactive: 25.6% and inactive: -28.4%; `COc1cccc(CNC(=O)CCc2c(C)c3cc4c(C)coc4cc3oc2=O)c1`: inactive: 41.7%.

On to `CCCN(CCC)C(=O)c1c[nH]c2ccc(S(=O)(=O)N(C)c3ccc(Cl)cc3)cc2c1=O`, for which the activation is inactive: -8.34%.

As to `COc1ccc(-c2c3c(=O)n(C)c(=O)n(C)c3c3n2-c2ccccc2NC3c2ccccc2OC)cc1` (stereo not drawn), the activation is inactive: -17.2%.

In the case of `COC(=O)c1ccc(NC(=O)c2cc3cc(C)ccc3n2C)cc1`, the activation is inactive: -5.36%. With `Nc1ccc(S(=O)(=O)c2ccc(N)cc2)cc1` the figure was inactive: 2.01%; with `CCOc1ccc(NC(=O)CSc2nnc3c(C)cc4ccccc4n23)cc1`, inactive: -7.84%. With `COc1ccc(S(=O)(=O)N2CCC(C(=O)Nc3ccc(Oc4ccccc4)cc3)CC2)cc1OC` the figure was inactive: 48.2%. With `CCCCSCCCNC(=O)c1cn(CC)c2ccc(S(=O)(=O)N3CCOCC3)cc2c1=O` the figure was inactive: -1.46%. Turning to `COc1ccc(NC(=O)c2ccc(-c3nc(COc4ccccc4)c(C)o3)cc2)cc1`, the activation is inactive: 3.62%. With `OC[C@H]1O[C@@H](Oc2ccc(O)cc2)[C@H](O)[C@@H](O)[C@@H]1O` the figure was inactive: 3.04%. With `Cc1cccc(NC(c2cccc(Cl)c2)c2ccc3cccnc3c2O)n1` (stereo not drawn) the figure was inactive: -13.1%. With `COc1cc(NC(=O)Nc2nnc(N3CCCCC3)s2)cc(OC)c1` the figure was inactive: -1.52%; with `COC(=O)c1ccccc1NC(=O)Cn1nc(C)c2nn(-c3ccc(Cl)cc3)c(C)c2c1=O`, inactive: -0.0914%; with `CCCn1c2ccccc2c2cnn(CC(=O)Nc3ccccc3OC)c(=O)c21`, inactive: -20.6%. As to `O=c1c2[nH]c3ccccc3c2nc(SCc2ccccc2F)n1-c1ccc(F)cc1`, the activation was inactive: 19.3%.

`CCc1ccccc1NC(=O)Cn1nc(-c2cc(C)ccc2C)c2c(c1=O)CCCC2`: the activation is inactive: -6.22%. For the compound `CC1CCc2nc3ccc(S(=O)(=O)N4CCC(C(=O)NCc5ccccc5Cl)CC4)cc3c(C(=O)O)c2C1` (stereo not drawn), the activation is inactive: -31.7%. With `Cc1nn(-c2ccccc2)c2c1N(CCCC(=O)NCc1ccc(OC(C)C)cc1)C(=O)CS2` the figure was inactive: -14.5%. On to `Cc1ccc2c(CC(=O)Nc3ccc(S(=O)(=O)N4CCC(C)CC4)cc3)coc2c1`, for which the activation was inactive: -4.22%. As to `COc1ccc(Cl)cc1NC(=O)C1CCCN(S(=O)(=O)c2ccc3c(c2)CCCC(=O)N3)C1` (stereo not drawn), the activation is inactive: -4.67%.

Turning to `Cc1ccc(CNC(=O)c2ccc3oc(=O)n(Cc4ccccc4)c3c2)cc1`, the activation was inactive: 10.2%. With `Cc1ccccc1OCC(=O)Nc1ccc(OCc2cc(=O)n3ccccc3n2)cc1` the figure was inactive: -17.9%; with `O=C(CSc1nc2c(c(=O)[nH]1)CN(Cc1ccc3c(c1)OCO3)CC2)Nc1cc(F)ccc1F`, inactive: 37.1%. Next, `COc1cccc(COC(=O)c2nn(-c3ccccc3)nc2N)c1`: inactive: -4.28%; `CCC(CC)C(=O)Nc1cccc(-c2nc3cccnc3s2)c1`: inactive: -9.07%. Consider `CCc1ccc(NC(=O)N2CC=C(c3c[nH]c4ccccc34)CC2)cc1`, for which the activation is inactive: -6.98%. Take `CCOc1ccc(-c2nc(Cn3c(=O)cc(-c4ccccc4)c4c(C)nn(C)c43)c(C)o2)cc1OC`: the activation was inactive: -1.68%. Regarding `COc1cc(OC)c(NC(=O)C(C)n2c(=O)cc(-c3ccccc3)c3c(C)nn(C)c32)cc1Cl` (stereo not drawn), the activation was inactive: -12.8%. With `COc1ccccc1CCNC(=O)c1cc2c(=O)n3cccc(C)c3nc2n1C` the figure was inactive: -2.14%; with `CC(=O)/C=C1\C(=O)N(C)c2ccccc21`, inactive: -59.6%; with `CNC(=O)C1CCC(Cn2c(=O)c3sccc3n(Cc3ccccc3)c2=O)CC1` (stereo not drawn), inactive: -1.94%. Next, `Cc1csc2nc(COC(=O)c3ccccc3NC(=O)c3ccccc3Cl)cc(=O)n12`: inactive: 1.98%. In the case of `CCOC(=O)c1[nH]c(C)c(CCC(=O)Nc2cc(Cl)ccc2C)c1C`, the activation is inactive: -9.71%.

Turning to `COc1ccc(C(=O)NCC(c2cccnc2)N2CCc3ccccc3C2)cc1` (stereo not drawn), the activation is inactive: -8.14%. With `CCN(CC)c1ccc(NC(=O)CCS(=O)(=O)c2cccc3nsnc23)c(C)c1` the figure was inactive: -12.8%.

For the compound `Cc1ccc(CNC(=O)C2CCN(c3nn4cc(-c5ccc(F)cc5)nc4s3)CC2)cc1`, the activation was inactive: -7.73%. With `Cc1cc(S(=O)(=O)Nc2cc3c(cc2C)n(C)c(=O)c(=O)n3C)ccc1F`, the activation is inactive: -7.82%. Regarding `CCSC1=NC2(CCN(C(=O)NC3CCCCC3)CC2)N=C1c1ccc(C)cc1`, the activation was inactive: 2.81%. With `CCOc1ccccc1NC(=O)c1c(NC(=O)C(C)Oc2cccc(Cl)c2)sc2c1CCCCC2` (stereo not drawn) the figure was inactive: 8.05%; with `Cc1cc(C)c2c(n1)nn1c(C)c(CCC(=O)Nc3ccc(C)c(Cl)c3)c(C)nc21`, inactive: -12.8%. With `Cc1cn2c(=O)cc(COC(=O)c3cccc(NC(=O)C(C)Oc4ccccc4)c3)nc2s1` (stereo not drawn) the figure was inactive: -1.05%; with `Cc1ccccc1NC(=O)CSc1ncc2c(n1)-c1ccccc1N(C)S2(=O)=O`, inactive: 34.2%; with `CCc1cc2c(cc3c(=O)n(CC(=O)NCc4cccc(Cl)c4)nc(CC)n32)s1`, inactive: -7.89%.

As to `CCC1=Nc2cc(C(=O)NCCc3ccccc3)ccc2Sc2ccc(Cl)cc21`, the activation was inactive: -3.73%. In the case of `Cc1cccc(S(=O)(=O)c2cn(Cc3ccccc3)c3cc(N4CCC(C)CC4)c(F)cc3c2=O)c1`, the activation was inactive: -20.9%.

As for `CCOc1ccc(CC(=O)Nc2c(C(=O)c3ccc(Cl)cc3)oc3ccccc23)cc1OCC`, the activation was inactive: 7.38%. Next, `CCn1c(Oc2ccc(F)cc2F)nc2c1c(=O)n(C)c(=O)n2C`: inactive: 11.2%; `CC1=C(C(=O)Nc2ccc(Cl)cc2)C(c2cccs2)n2nc(SCc3cccc(Cl)c3)nc2N1` (stereo not drawn): inactive: 8.15%; `COc1cccc(CNC(=O)C(=O)NCC(c2cccs2)S(=O)(=O)c2cccs2)c1` (stereo not drawn): inactive: -13.6%.

Turning to `COc1cccc(OCc2nc3ccccc3n2Cc2ccccc2)c1`, the activation was inactive: -28.4%. Next, `COc1ccc(-n2nc3cc(C)c(NC(=O)COc4cccc(C)c4)cc3n2)cc1`: inactive: 28.8%; `COc1ccc(Nc2cc(C(=O)NCCCN(C)Cc3ccccc3)c3ccccc3n2)cc1OC`: inactive: -25.1%. With `COc1cccc(CNC(=O)C2CCC(CNS(=O)(=O)c3cccs3)CC2)c1` (stereo not drawn) the figure was inactive: 36.6%. In the case of `O=c1c(S(=O)(=O)c2ccccc2)cn(Cc2ccc(F)cc2)c2cc(N3CCCC3)c(F)cc12`, the activation was inactive: -2.58%.

As to `Cc1ccc(OCc2cc(=O)n3c4c(sc3n2)CCCC4)c(C)c1`, the activation was inactive: 22.7%. As for `CCCC(=O)N(c1ccc2oc3c(c2c1)CCCC3)S(=O)(=O)c1ccc(CC)cc1`, the activation is inactive: -6.77%. As to `COc1ccc(OC)c(-n2c(=O)[nH]c3cc(C(=O)NCCc4ccc(OC)c(OC)c4)ccc3c2=O)c1`, the activation is inactive: 9.94%.

Consider `COc1cccc(NC(=O)c2sc(-n3nc(C)c(Cc4ccccc4Cl)c3C)nc2C)c1`, for which the activation was inactive: -7.37%.
